In the supplement of paper PMC3334620:
In all, about 33,000 sequences were measured (“E-score (-0.5 to 0.5)”: median about -0.056, highest 2% from about 0.38 on). Some of the results follow.

molecular target: Stb4 (UniProt P50104); assay: PBM E-score (8-mer binding enrichment) (E-score (-0.5 to 0.5)); higher = stronger / more preferred TF binding; most listed sequences are background and not binding sites; details: protein concentration: 200 nM; construct: GST-DNA-binding domain
Summary of the method: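 Bound GST-tagged yeast transcription factors, applied at about 100-200 nM to double-stranded universal all-10-mer Agilent arrays, were detected with fluorescent anti-GST. Scans were normalised with masliner. A modified Wilcoxon-Mann-Whitney statistic, the E-score, was assigned to each ungapped eight-base word pooled with its reverse complement by the Universal PBM Analysis Suite.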

Row | Sequence | PBM E-score
1 | ATAACTCA | -0.0537
2 | TCAATTAA | 0.0112
3 | ACTCTTGA | -0.226
4 | GGGCATAA | -0.0978
5 | GGAGCGAC | -0.125
6 | GAACTCTA | 0.0701
7 | CGTTGGGC | -0.0166
8 | AGGCTGAT | -0.146
9 | GCTCCCCC | -0.118
10 | CCAAAAAA | -0.0541
11 | AGGCTTAC | -0.00932
12 | AAAAACGT | -0.0241
13 | CGGCATAC | 0.195
14 | AAGTTGTG | -0.198
15 | CACACGAC | -0.138
16 | AACAAATA | 0.125
17 | ATTACACG | 0.0921
18 | AGGGTAAG | 0.0949
19 | AGATGAAT | -0.168
20 | TAAACGCA | -0.151
21 | CCGGACTA | 0.2
22 | TCCCACGA | -0.0411
23 | GCTAGGTA | -0.0267
24 | AGGACGGG | 0.0687
25 | TAGCGTAA | -0.0165

Row | Sequence | PBM E-score
26 | CCTGACGA | -0.271
27 | CGCCCTTC | 0.0181
28 | CTAGCCTA | -0.282
29 | GGTACAAC | 0.00245
30 | CTCTGCGC | -0.104
31 | AGTATTGC | 0.0903
32 | CCAGGCAC | -0.113
33 | CCCTCTCG | 0.0314
34 | CTCATTGC | -0.18
35 | GAATTTCA | -0.0427
36 | ATTAGATA | -0.215
37 | AGCCTCCA | -0.234
38 | CAACCAAC | -0.164
39 | TTCGGAAA | 0.474
40 | GGTGTCAA | -0.0888
41 | GAACTTCA | 0.017
42 | GAGATAGC | -0.116
43 | AGTGCCGA | 0.423
44 | CCCGCTAG | 0.0908
45 | CAGAGTTC | -0.0589
46 | CGCCTCAC | 0.041
47 | GCTAAAAC | -0.0999
48 | ATTAGGGC | -0.225
49 | AATATCCC | 0.247
50 | ATTGAACC | -0.107

Row | Sequence | PBM E-score
51 | CAAATGCG | -0.127
52 | AACGTCAG | -0.155
53 | CATCGTTC | -0.0179
54 | AGCCGCAC | 0.132
55 | AACGCTGT | -0.113
56 | GGGTCAAC | 0.189
57 | TGAGGGCA | -0.155
58 | ACATCTAC | 0.0158
59 | GGGTTCGA | -0.118
60 | TCCTACCA | -0.269
61 | ATTCCTTG | -0.121
62 | GCAGTTAA | -0.126
63 | GAAGGAAA | -0.075
64 | AGTCGGTC | 0.181
65 | CGGTCTTA | 0.0277
66 | AATGTTAC | 0.114
67 | AGCTTCTC | -0.0745
68 | GTCACGAA | -0.00117
69 | CGGACAAA | 0.226
70 | GGTGGCGA | -0.0406
71 | CACATACC | -0.0174
72 | GAACTTAC | 0.0425
73 | AGCAAAAT | 0.0589
74 | CGTGGGCC | 0.0128
75 | CTGGACGA | -0.261

Row | Sequence | PBM E-score
76 | CGGAACAA | 0.444
77 | AAAACGGC | 0.149
78 | CTCTGGCA | -0.147
79 | CTTTTACC | 0.13
80 | TAAGATAA | -0.0966
81 | CTGTTGTC | -0.0287
82 | AATCAGCC | 0.0593
83 | TTCTTCAA | -0.0558
84 | AGGGTACA | -0.149
85 | ACAGGGTC | -0.0379
86 | ATCTTGAA | -0.186
87 | GTTTATGA | -0.0515
88 | CGTCTTAA | -0.187
89 | CGATGTGA | -0.0578
90 | ATACCTGG | -0.14
91 | CAGTGAGA | -0.161
92 | AACGTTGT | -0.145
93 | CGAAGACG | 0.0931
94 | TCCAAACA | -0.145
95 | CGCTTTTC | -0.0421
96 | GACAAGAC | 0.151
97 | CTTCCTTC | -0.0935
98 | CATACTTC | -0.0611
99 | AGAAAGAT | -0.224
100 | GTAACCAC | -0.231

Row | Sequence | PBM E-score
101 | TGCGGCAA | 0.0334
102 | ACGGTAGT | 0.0902
103 | AAGGTGTC | -0.0281
104 | GCCCACAC | -0.105
105 | AATAGGGG | 0.0926
106 | CGCAGGAG | -0.0827
107 | CTATGCTC | -0.32
108 | AAACGCTG | -0.212
109 | ATTAGGGA | -0.0612
110 | CCTTCTAA | -0.338
111 | ATATCATG | -0.0971
112 | CGAATACA | 0.103
113 | ATTATTAC | 0.0199
114 | CATGAATG | -0.226
115 | CCTAGGGC | -0.153
116 | ATGTGCAG | -0.166
117 | GCTGGCTA | -0.267
118 | ATATGTAG | -0.254
119 | AAAACACG | -0.005
120 | CCAGCGGG | 0.124
121 | ATGCAGAA | -0.165
122 | GCAGTAAA | 0.114
123 | AGCTTAAC | -0.127
124 | AGTTTTCC | 0.229
125 | CACACAAA | -0.0727

Row | Sequence | PBM E-score
126 | GTGCGCGA | 0.0352
127 | CAGTTCAC | -0.0842
128 | AGAGGCAC | -0.224
129 | ATTAACAG | -0.238
130 | ATATTGTG | -0.134
131 | GTCAGCTA | -0.259
132 | GTATGGCA | -0.209
133 | CAGTATCA | -0.139
134 | ATGCCACG | -0.0957
135 | CACTTGTA | -0.223
136 | ACTTTTCG | 0.0867
137 | TTAGAAAA | 0.117
138 | CTGAGCTA | -0.245
139 | TAACTGAA | -0.265
140 | GCAGTGCA | -0.0523
141 | ACCACGGA | 0.286
142 | CGCTGATA | -0.123
143 | ACGGCTGG | -0.026
144 | CAGAGTAG | -0.264
145 | ATGACATG | -0.269
146 | AGGTACGG | 0.252
147 | ACAGGCGG | 0.134
148 | GACAGTCC | -0.021
149 | ACGACAAG | -0.144
150 | AAAGTGAC | -0.123

Row | Sequence | PBM E-score
151 | CCTAGTCA | -0.367
152 | CTTCGAGA | -0.257
153 | GTCAAAAA | -0.141
154 | GCTTGGCA | -0.31
155 | TAAATATA | 0.0348
156 | ACTGGCCT | -0.0527
157 | CATGTGTC | -0.155
158 | CCCAGAGA | -0.153
159 | AATATACC | 0.0722
160 | ACCATACC | 0.044
161 | ATGAACCA | -0.00287
162 | ATCAGCAT | -0.267
163 | AAAAGTTT | -0.121
164 | ACGAGGAG | -0.349
165 | AAGTGGGC | -0.0583
166 | CGACCTCA | 0.0302
167 | CCCTACGA | -0.221
168 | TGCGAGAA | -0.132
169 | CCTACTAA | -0.0833
170 | CGAGCCCG | 0.149
171 | ACTTATCG | 0.134
172 | CCGGTTCC | 0.347
